Whole data set: some 33,000 sequences, median “E-score (-0.5 to 0.5)” near -0.043, cut for the highest 2% near 0.37. The list shows a part of the results.
Molecular target: T1, Upc2 (UniProt Q12151)
T1 sequence: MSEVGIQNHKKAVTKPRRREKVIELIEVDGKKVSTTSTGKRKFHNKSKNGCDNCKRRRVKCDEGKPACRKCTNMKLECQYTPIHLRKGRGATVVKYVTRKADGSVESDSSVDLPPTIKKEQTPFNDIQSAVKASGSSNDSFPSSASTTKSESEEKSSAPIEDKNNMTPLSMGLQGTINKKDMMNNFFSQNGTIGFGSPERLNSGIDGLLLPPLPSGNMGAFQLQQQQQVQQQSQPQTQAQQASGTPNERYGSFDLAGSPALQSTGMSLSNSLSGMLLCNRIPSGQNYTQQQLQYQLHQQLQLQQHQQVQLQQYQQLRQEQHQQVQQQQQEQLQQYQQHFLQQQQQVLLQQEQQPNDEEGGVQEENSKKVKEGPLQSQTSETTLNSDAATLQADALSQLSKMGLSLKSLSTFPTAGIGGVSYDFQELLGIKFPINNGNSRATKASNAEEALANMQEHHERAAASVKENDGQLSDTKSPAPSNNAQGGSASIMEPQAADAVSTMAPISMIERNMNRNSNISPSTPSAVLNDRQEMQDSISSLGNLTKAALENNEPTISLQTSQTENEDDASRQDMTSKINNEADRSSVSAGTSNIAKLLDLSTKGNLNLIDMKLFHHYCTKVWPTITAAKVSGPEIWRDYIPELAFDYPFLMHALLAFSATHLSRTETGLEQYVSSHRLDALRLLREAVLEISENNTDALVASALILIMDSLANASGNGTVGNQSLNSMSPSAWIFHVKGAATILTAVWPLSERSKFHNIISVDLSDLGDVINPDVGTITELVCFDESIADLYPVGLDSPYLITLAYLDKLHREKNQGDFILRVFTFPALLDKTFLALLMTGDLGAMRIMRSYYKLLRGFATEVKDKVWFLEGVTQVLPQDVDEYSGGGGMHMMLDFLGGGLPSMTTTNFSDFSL
Assay: PBM E-score (8-mer binding enrichment) (E-score (-0.5 to 0.5)); higher = stronger / more preferred TF binding; most listed sequences are background and not binding sites
Conditions: protein concentration: 200 nM; construct: GST-full length
In short: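 Universal all-10-mer Agilent arrays, double-stranded by primer extension on fresh or once-stripped slides, were probed with about 100-200 nM GST-tagged yeast transcription factors made by PURExpress. Fluorescent anti-GST detected bound protein, and masliner normalised the scans. E-scores from the Universal PBM Analysis Suite were given to each ungapped eight-base word pooled with its reverse complement.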

Row | Sequence | PBM E-score
1 | ACGTATCT | 0.0906
2 | CCAATGCC | -0.221
3 | AATGTTGG | -0.12
4 | GAAACCGC | 0.0439
5 | ATTTAACG | 0.387
6 | AAGGGCCT | -0.392
7 | CGTAGCCC | 0.213
8 | AATGGTGC | -0.0257
9 | AGGGGGGA | -0.206
10 | ATTCTTCA | -0.00023
11 | CACTGGGA | -0.199
12 | TAGTTCCA | -0.198
13 | AATATCTG | -0.124
14 | CTGATGTC | -0.118
15 | ACTGAACC | 0.042
16 | AACGGCGA | 0.363
17 | GGGCATCA | -0.295
18 | CGGTACAC | -0.0353
19 | GACTGATA | -0.216
20 | AGCTCCGC | -0.0544
21 | AACAAGAC | 0.0159
22 | ACTAACGC | 0.0466

Row | Sequence | PBM E-score
23 | AGGTTTGC | -0.0369
24 | ACTATGGC | -0.0976
25 | GGTGCGCA | 0.0199
26 | ACAGATGT | -0.0314
27 | GCGCGCGA | 0.162
28 | ACTTGGAG | -0.2
29 | AGTCGACT | 0.0522
30 | GACGAAAC | 0.251
31 | ACATTCCC | -0.0778
32 | AGTGTGGA | -0.244
33 | ATTCGACG | 0.0604
34 | ATACCCAC | -0.0254
35 | TATTCAAA | 0.0284
36 | AGTGTCAT | -0.0592
37 | AAGATAAA | 0.108
38 | GCTTCACC | -0.256
39 | CTCATCAG | -0.0374
40 | AGGACCGA | 0.0447
41 | CAGCGTGA | -0.0803
42 | AGGATTTA | -0.0924
43 | ATGTTTAG | 0.0586
44 | TCTCCCAA | -0.226

Row | Sequence | PBM E-score
45 | AAGCGGTA | 0.138
46 | ACGCGAGG | 0.219
47 | CCTCTATC | -0.122
48 | ATCCTCAG | -0.187
49 | CGCCTCGA | -0.0127
50 | AACAAAGC | 0.00917
51 | ATCTTGTG | -0.214
52 | AAGGAAGT | -0.209
53 | CATAACCG | 0.133
54 | CCCCGGCC | -0.347
55 | CCACCGCA | 0.0444
56 | TACATTCA | -0.208
57 | TACAGACA | 0.203
58 | GGTTTTAC | 0.0509
59 | CCTTCCGA | -0.192
60 | TGACGACA | 0.0658
61 | CCCGCGCA | -0.0994
62 | ACGCAAAA | 0.182
63 | CCCCTACA | -0.345
64 | AGTTTCAT | 0.0688
65 | GCAGCATA | -0.188
66 | CTTCGAAG | -0.0578

Row | Sequence | PBM E-score
67 | GATCGTGC | 0.0519
68 | GAAAAGCA | 0.0175
69 | CACCAGAC | 0.00853
70 | AACGGTAG | 0.231
71 | GCACTGGC | -0.105
72 | ATGCTTAC | -0.0957
73 | CATGCGAC | 0.141
74 | CAAATTTA | -0.0396
75 | ACTCGTCC | -0.141
76 | GAGCACAA | -0.0319
77 | CCGCCGCC | -0.0404
78 | GCAAGCAA | -0.0268
79 | AATTGGAG | -0.158
80 | ACAGGGAC | -0.0357
81 | CTCCGTGC | -0.251
82 | TAAACCCA | -0.0418
83 | CTTATCGA | 0.0265
84 | AGCTCCAT | -0.216
85 | GGTATATA | 0.152
86 | ACACTATA | 0.0283

Reference: the supplement of paper PMC3334620
